# Test results published in the supplement of paper PMC3334620.
# The full ranking holds about 33,000 sequences; the median of “E-score (-0.5 to 0.5)” is about -0.016, and the highest 2% start at about 0.32. The list shows a part of the results.
# Biological target: T1, Stp1 (UniProt B3LFK1)
# T1 sequence: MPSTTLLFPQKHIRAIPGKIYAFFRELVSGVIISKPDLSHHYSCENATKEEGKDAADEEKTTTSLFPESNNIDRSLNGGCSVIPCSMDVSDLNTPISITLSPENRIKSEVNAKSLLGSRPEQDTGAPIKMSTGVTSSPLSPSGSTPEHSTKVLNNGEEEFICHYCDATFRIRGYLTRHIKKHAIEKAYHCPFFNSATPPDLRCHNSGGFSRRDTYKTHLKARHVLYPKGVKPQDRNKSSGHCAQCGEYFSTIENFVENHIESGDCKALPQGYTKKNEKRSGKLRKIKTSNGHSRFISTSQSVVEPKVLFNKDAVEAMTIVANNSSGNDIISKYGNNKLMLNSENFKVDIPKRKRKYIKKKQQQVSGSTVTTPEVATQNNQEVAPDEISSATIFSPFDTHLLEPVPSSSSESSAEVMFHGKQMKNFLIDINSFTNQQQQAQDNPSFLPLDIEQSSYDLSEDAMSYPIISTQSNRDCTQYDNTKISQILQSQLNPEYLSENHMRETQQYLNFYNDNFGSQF
# Test: PBM E-score (8-mer binding enrichment) (E-score (-0.5 to 0.5)); higher = stronger / more preferred TF binding; most listed sequences are background and not binding sites
# Details: protein concentration: 200 nM; construct: GST-full length
# Outline: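 Masliner-normalised scans of fluorescent anti-GST signal were the basis for scoring. That signal came from GST-tagged yeast transcription factors applied at about 100-200 nM to double-stranded universal all-10-mer Agilent arrays on fresh or once-stripped slides. Each ungapped eight-base word, pooled with its reverse complement, received an E-score from the Universal PBM Analysis Suite.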
row,Sequence,PBM E-score
1,GCGGAACC,0.102
2,ACACCAAC,-0.204
3,GGTCCGAA,0.00635
4,AGACTAGA,-0.182
5,TGTTGTAA,0.149
6,TCACAGGA,-0.0531
7,CCATCTTC,0.0277
8,TACATATA,0.199
9,ATTGATCG,0.0229
10,ATGGCAGA,0.116
11,GTTTGTTA,0.228
12,ATGCGCGG,0.307
13,AAACTGCG,-0.0893
14,TACGTTCA,-0.00934
15,CACACCAC,-0.0382
16,AATCCTTC,-0.128
17,CCGCGCCG,0.462
18,CCCGAGTC,-0.133
19,ATGATGCG,0.148
20,CAACGTGA,-0.108
21,AATCCACG,0.122
22,TAAGCATA,0.122

row,Sequence,PBM E-score
1,ATGAAGTC,-0.12
2,CTAGTACC,-0.0737
3,ACGAGAAG,0.00088
4,GTAGGATA,-0.0706
5,CAGTCCAA,-0.148
6,ACACGAGA,-0.111
7,ATGGGCCA,-0.135
8,CGCCCGAC,0.0372
9,AATATAAC,0.0318
10,AAATGGTT,0.0407
11,ATTAACGC,0.0428
12,TCGCCAGA,-0.00297
13,AATAAACC,0.0804
14,AGCGGACA,0.02
15,ACATAAAC,0.129
16,AAGTGTTA,0.0084
17,TACTACAA,0.161
18,CATACTCG,-0.0635
19,AGACAGCA,-0.0751
20,ACCGAAAG,-0.0529
21,AAAAAAGA,0.0563
22,ACGTGATA,0.0417

row,Sequence,PBM E-score
1,AATTAGCA,0.12
2,TCACCGAA,-0.0434
3,CTACTCGA,0.0184
4,GGGTGAAA,-0.139
5,AGATTAAG,-0.0157
6,AGGGTAGC,-0.243
7,GGTGTCTA,0.0155
8,TGGCGCAA,0.298
9,GCCGTGAA,0.361
10,ATTAACTC,0.189
11,AGAGCACC,-0.0875
12,AGTCGACG,0.131
13,AGCGAGTG,0.0906
14,AATGAAAG,0.00618
15,AAGAGTCA,-0.224
16,ATAACACC,0.0275
17,GTGTGCTA,0.0152
18,TCAATACA,0.0645
19,GAGCGAAC,-0.183
20,CGGTATGA,0.0359
21,GAGCGTCA,-0.0209
22,ATATCTCG,-0.016

row,Sequence,PBM E-score
1,CATGCGTC,-0.114
2,AGCCGAGC,0.108
3,ATAAGCAG,-0.0682
4,ACCCGGGC,-0.154
5,ACTATACC,-0.017
6,CGTACGGA,0.302
7,CCTAGAGG,-0.208
8,AAGTTACT,0.0281
9,GTTGACCA,0.0886
10,CACCCCGA,-0.148
11,AACGGGAC,-0.0599
12,TGTTCTAA,0.0932
13,GCACGTCC,0.135
14,CGCGCGCA,0.272
15,ATCCTCGC,-0.136
16,GCGGAAGC,-0.0335
17,GCAATGAA,0.256
18,GTGATAGA,-0.0664
19,AATAAGGA,0.0737
20,ATTTAAAG,0.244
